Measured values from PMC2605406 (Science (New York, N.Y.), 2008).

Target: QseC (Escherichia coli, UniProt Q8X524)
Test: inhibition of tritiated norepinephrine binding, QseC in liposomes
Conditions: against 5 uM tritiated NE

Chain of UniProt Q8X524 (Q8X524 whole entry, looked up): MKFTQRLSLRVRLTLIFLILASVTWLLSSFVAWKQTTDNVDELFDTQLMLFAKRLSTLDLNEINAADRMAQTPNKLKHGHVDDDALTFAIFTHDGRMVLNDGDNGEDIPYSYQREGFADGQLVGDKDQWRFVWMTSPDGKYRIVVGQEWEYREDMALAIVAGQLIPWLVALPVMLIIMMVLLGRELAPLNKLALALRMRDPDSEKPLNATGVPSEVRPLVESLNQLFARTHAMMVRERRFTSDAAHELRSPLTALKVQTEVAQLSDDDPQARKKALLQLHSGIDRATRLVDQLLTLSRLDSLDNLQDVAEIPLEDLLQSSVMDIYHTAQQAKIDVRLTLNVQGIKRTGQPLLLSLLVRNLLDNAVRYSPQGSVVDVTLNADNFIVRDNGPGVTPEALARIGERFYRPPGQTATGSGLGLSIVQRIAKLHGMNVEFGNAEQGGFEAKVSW

For Cc1ccc(N(CC2=NCCN2)c2cccc(O)c2)cc1 [phentolamine], the “inhibition of tritiated norepinephrine binding, QseC in liposomes” value was “phentolamine (an alpha-adrenergic antagonist) antagonizes this binding to block QseC autophosphorylation”.
